From PubChem BioAssay AID624417 (National Center for Advancing Translational Sciences (NCATS), 2012)
The whole screen tested about 410,000 compounds, of which about 6,400 (1.6%) were called active. The inconclusive results got no clear call from the source; some entries with a clear call stand among them for comparison. Calls come from the whole dose curve; as a rule, active = well fitted inhibition curve with a large enough effect; inconclusive = small, poorly fitted or top-dose-only effect; inactive = no such curve, though single readings can be large or run the other way. Potencies beside an inconclusive call are fits to weak or partial responses and may not hold up.

molecular target: Glucagon-like peptide 1 receptor (Homo sapiens) (UniProt P43220); test: qHTS of GLP-1 Receptor Inverse Agonists (Inhibition Mode); settings: HEK293 GLP-1R CRE-luciferase, luminescence, 24 h, GLP-1R form is constitutively active; series mostly up to 38.3 µM; note: nearly all actives have a fitted effect of over 55% in size
Summary of the method: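 Stable HEK293 clone (constitutively active GLP-1R + cAMP-response luciferase); 200 cells/uL plated, 12 h pre-culture, compound 24 hr, 37 deg C/5% CO2; detection reagent 12 min RT; luminescence.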
Potency is the fitted concentration of half-maximal effect; tags give direction and shape of the fitted curve.

Sequence of UniProt P43220 (P43220 whole entry, looked up): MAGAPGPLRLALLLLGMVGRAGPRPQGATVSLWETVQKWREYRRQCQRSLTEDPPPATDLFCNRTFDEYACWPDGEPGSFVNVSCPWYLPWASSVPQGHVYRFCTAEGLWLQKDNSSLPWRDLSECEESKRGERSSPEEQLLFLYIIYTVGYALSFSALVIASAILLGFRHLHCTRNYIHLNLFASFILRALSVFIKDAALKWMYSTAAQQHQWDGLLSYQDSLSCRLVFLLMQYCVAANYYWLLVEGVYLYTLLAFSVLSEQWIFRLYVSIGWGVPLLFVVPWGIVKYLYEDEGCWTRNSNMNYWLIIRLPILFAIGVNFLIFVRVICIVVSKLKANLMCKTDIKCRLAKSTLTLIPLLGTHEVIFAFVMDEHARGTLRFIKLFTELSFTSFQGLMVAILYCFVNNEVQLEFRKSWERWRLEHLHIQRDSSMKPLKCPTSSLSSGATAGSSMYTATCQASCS

Potency, inactive:
Cc1ccc(C(=O)Nc2ccc(-c3cn4cccnc4n3)cc2)cc1C
CCOc1ccccc1C1C(C(=O)N2CCCCC2)=C(C)Nc2nc3ccccc3n21 (stereo unspecified)
Cc1csc(SCC(=O)N(C)CC(=O)Nc2ccccc2Cl)n1
CC1COc2c(N3CCN(C)CC3)c(F)cc3c(=O)c(C(=O)O)cn1c23 (stereo unspecified)
O=C1CCCN1CCC1CCN(C2CC(=O)N(Cc3ccc(N4CCCC4=O)cc3)C2=O)CC1 (stereo unspecified)
Cc1cc(C)c(NC(=O)Cc2csc(C)n2)c(Cl)c1
C=CCN1C(=O)/C(=C/c2ccc(OCC(=O)O)cc2)S/C1=N/c1nccs1
Cc1cnc(NC(=O)CSc2nnc(Cc3ccccc3)o2)s1
COc1cc(/C=C(\C#N)c2nc3ccccc3[nH]2)cc(OC)c1O
Cc1ccc(NC(=O)Cn2c(=O)n(CC3CCCO3)c(=O)c3ccccc32)cc1 (stereo unspecified)

Potency, inconclusive:
S=C1NC(c2ccccc2)=CC(c2ccccc2)N1 (stereo unspecified) 28.2 µM [inhibitor, single point]
Cc1ccc(C)c(N(C(=O)Cn2nnc(-c3cccs3)n2)C(C(=O)NC2CC2)c2ccc(C)o2)c1 (stereo unspecified) 11.2 µM [inhibitor, partial curve, poor fit]
CCCCOc1ccc(CON(C(C)=O)C(C)=O)cc1Cl 15.8 µM [inhibitor, partial curve, poor fit]
C[C@@H]1CC=C[C@H]2[C@H]1C(=O)N(Cc1ccccc1)[C@H]2c1ccc(-c2cc3ccccc3s2)cc1F 15.8 µM [inhibitor, partial curve, poor fit]
Cc1ccc(C)c(OCC(=O)N/N=C/c2ccsc2)c1 2.82 µM [inhibitor, full curve, poor fit]
CCN1C(=O)c2ccccc2Sc2ccc(C(=O)NCCCN(CC(C)C)CC(C)C)cc21 3.16 µM [inhibitor, full curve]
O=C(CSc1nccn1-c1ccc(F)cc1)Nc1ccc2c(c1)OCO2 28.2 µM [inhibitor, single point]
Cc1ccc(CSc2nnc(-c3ccc(NS(=O)(=O)c4ccccc4)cc3)o2)cc1 28.2 µM [inhibitor, single point]
COc1ccc(N2CCN(c3ccc(NC(=O)NN)cc3)CC2)cc1 3.16 µM [inhibitor, single point]
O=C(Nc1ccc(-c2cn3ccccc3n2)cc1)c1cccs1 28.2 µM [inhibitor, single point]
CCOc1ccccc1C(=O)N(Cc1ccco1)C1CCS(=O)(=O)C1 (stereo unspecified) 22.4 µM [inhibitor, single point]
CCc1cc2c(SCC(=O)c3ccc(C)cc3)ncnc2s1 2.51 µM [inhibitor, partial curve, poor fit]
CC(C)CC1c2[nH]c3ccccc3c2CCN1CCCn1cccn1 (stereo unspecified) 28.2 µM [inhibitor, single point]
O=C(CSc1nnc(-c2ccccn2)o1)Nc1ccccc1F 10 µM [inhibitor, single point]
CS(=O)(=O)N(CC(=O)N1CCN(c2ccccc2)CC1)c1cccc(Br)c1 25.1 µM [inhibitor, single point]
Cc1ccc2c(c1)C1CN(C)CCC1N2S(=O)(=O)c1cccc(F)c1 (stereo unspecified) 14.1 µM [inhibitor, single point]
CCOC(=O)c1cccc(NC(=O)[C@@H](c2ccccc2)N2Cc3ccccc3C2=O)c1 20 µM [inhibitor, single point]
CCc1cccc(CC)c1NC(=O)c1cc(CN2C(=O)c3ccccc3C2=O)ccc1OC 15.8 µM [inhibitor, partial curve, poor fit]
Cc1ccc(S(=O)(=O)N2CCOCC2)cc1NC(=O)COc1ccccc1Cc1ccccc1 14.1 µM [inhibitor, single point]
C=CCOc1ccc(CN(C)c2ccc(S(=O)(=O)N3CCN(C)CC3)cc2[N+](=O)[O-])cc1 11.2 µM [inhibitor, partial curve, poor fit]
O=C(CS(=O)CC(=O)N(c1cccc(F)c1)C(C(=O)NC1CCCCC1)c1ccco1)Nc1ccc(F)cc1 (stereo unspecified) 6.31 µM [inhibitor, partial curve, poor fit]
O=c1[nH]c(Cn2nnc(-c3ccccc3)n2)nc2scc(-c3ccccc3)c12 28.2 µM [inhibitor, single point]
O=C(Cn1c(C(=O)NCc2ccco2)cc2sccc21)c1ccccc1 11.2 µM [inhibitor, partial curve, poor fit]
CCCCc1c(-c2ccccc2OC)ncn1CCc1cccc(OC)c1 28.2 µM [inhibitor, single point]
CCN(CC#CCC(O)(c1ccccc1)c1ccccc1)C(C)C 2.82 µM [inhibitor, full curve]
COc1ccc(-c2cc(C(=O)N3CCCCCC3)c3cc(C)ccc3n2)cc1 5.62 µM [inhibitor, full curve]
COc1ccc2c(-c3ccc(OCCN4CCOCC4)cc3)c(-c3ccccc3OC)sc2c1 11.2 µM [inhibitor, partial curve, poor fit]
COc1cc(C[C@@H](C)[C@@H](C)Cc2ccc(O)c(OC)c2)ccc1O 28.2 µM [inhibitor, single point]
CCC(C)c1ccc(NC(=O)c2cccnc2)cc1 (stereo unspecified) 3.16 µM [inhibitor, partial curve, poor fit]
Cc1cc(C)cc(NC(=O)CSc2ccccc2)c1 28.2 µM [inhibitor, single point]
Cc1ccc(Cl)cc1N1CCN(C(=O)c2ccc(CS(=O)(=O)c3ccccc3C)o2)CC1 12.6 µM [inhibitor, single point]
